Reference: US4859584A (priority 1986, dated 1989)

Tests used:
[1] = in glucose, fructose, ribose, sorbose, sucrose, xylose, glycerol, inositol, xylitol, adonitol, glycine, arginine
Procedure: Included within compounds referred to herein as cyanine dyes are compounds of the above structure having one or more substitutions provided such substituted compounds are soluble in a cell labelling media for at least as long as needed for labelling and have a sufficiently high membrane partition coefficient to remain associated with labelled cell membranes. […] Solubility in cell labelling media is determined as shown below by dispursing a cyanine dye in the labelling media and, by standard spectrofluorometric techniques, measuring fluorescence intensity over time. Decreasing fluorescence intensity indicates dye precipitation and adherence to vessel walls. Whether the dyes remain associated with cell membranes is determined, for example, using known flow cytometric procedures to monitor fluorescence intensity of red blood cells reinjected into the donor animal after labelling. Essentially constant fluorescence intensities of the labelled cells after reinjection establishes stability of the dye in cell membranes.

[2] = Procedure: Further, the solubility of cyanine dyes in a medium containing classical salts and osmolarity regulators in which the dyes are soluble was evaluated. […] Thus, reproducible cell labelling with cyanine dyes can be performed in media containing no more than small amounts of classical salts, such as sodium chloride, potassium chloride, calcium chloride, sodium acetate, potassium acetate, sodium sulfate, sodium iodide, choline chloride, or choline iodide, and preferably is performed in a medium in which no classical salts are used to regulate osmolarity.

CCCCCCCCCCCCCCN1C(=CC=CC=Cc2sc3ccccc3[n+]2CCCCCCCCCCCCCC)Sc2ccccc21 [DiSC14 (5)]
Stability of dye solution [1]: stable in the tested solutions for at least twenty minutes | Solubility in iso-osmotic glucose solution on dilution with sodium chloride solution ([2]; dilution with approximately 20% iso-osmotic sodium chloride solution): reduced significantly | Solubility in iso-osmotic glucose solution on dilution with distilled water ([2]; dilution with distilled water): not significantly affected
